PubChem BioAssay AID1159614 (National Center for Advancing Translational Sciences (NCATS), 2016)
In all, about 45,000 compounds went through this assay and about 65 (0.1%) were called active. Calls follow the shape of the dose curve; as a rule, active = well fitted activation curve with a large enough effect; inconclusive = small, poorly fitted or top-dose-only effect; inactive = no such curve, though single readings can be large or run the other way. The list shows a part of the results.

Biological target: Galactocerebrosidase (Homo sapiens) (UniProt P54803)
Sequence of UniProt P54803 (P54803 whole entry, looked up): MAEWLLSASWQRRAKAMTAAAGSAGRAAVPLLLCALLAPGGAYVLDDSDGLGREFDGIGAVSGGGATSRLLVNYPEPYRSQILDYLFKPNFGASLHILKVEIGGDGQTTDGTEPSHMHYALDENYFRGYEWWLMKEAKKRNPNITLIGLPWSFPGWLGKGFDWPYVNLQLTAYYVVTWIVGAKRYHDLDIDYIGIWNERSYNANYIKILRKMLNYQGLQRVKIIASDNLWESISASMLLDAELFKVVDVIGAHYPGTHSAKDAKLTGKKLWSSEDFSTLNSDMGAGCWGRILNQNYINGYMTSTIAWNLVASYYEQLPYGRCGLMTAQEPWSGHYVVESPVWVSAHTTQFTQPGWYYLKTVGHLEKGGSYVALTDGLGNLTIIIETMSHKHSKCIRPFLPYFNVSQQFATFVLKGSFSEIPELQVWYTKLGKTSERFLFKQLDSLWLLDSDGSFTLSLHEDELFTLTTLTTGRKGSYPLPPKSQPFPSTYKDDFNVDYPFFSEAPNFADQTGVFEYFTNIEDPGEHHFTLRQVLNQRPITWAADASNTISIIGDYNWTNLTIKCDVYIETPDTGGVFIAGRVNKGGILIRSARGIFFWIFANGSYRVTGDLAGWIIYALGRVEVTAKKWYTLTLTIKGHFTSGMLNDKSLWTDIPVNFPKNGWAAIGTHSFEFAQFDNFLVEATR
Experiment: A Novel Cell-Based Assay to Identify Small Molecules for B -Galactocerebrosidase; also: 0% is about no effect; nearly all actives have a fitted effect of over 65% in size
Settings: 145M-Twi-hGALC-G270D cells (Twitcher mouse brain line with human GALC G270D), HMU-beta-Gal fluorescence, 48 h; series mostly up to 57.5 µM; activation: at the top concentration
Method in brief: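 Mutant human GALC (G270D), stably expressed in a Twitcher mouse brain cell line lacking endogenous GALC, is measured in live-treated cells via 6-hexadecanoylamino-4-methylumbelliferyl-β-galactoside hydrolysis (0.1 mM final, pH 5.2) with fluorescent detection.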

activation, inactive:
COCCCN1C(=O)c2[nH]nc(-c3ccccc3O)c2C1c1ccc(OC)cc1 (configuration not stated) -8.4%
CCN(CC)CCCNC(=O)C(C)n1nc(C)n2c(cc3occc32)c1=O (configuration not stated) -6.31%
Cc1c(Cl)cccc1NC(=O)CCn1cnnn1 -24%
COc1ccc(Cl)cc1NC(=O)COC(=O)CC(C)(C)CC1=NS(=O)(=O)c2ccccc2N1 -3.02%
COC(=O)c1cc(C)nc2c1c(=O)nc(SCc1cccc(C(F)(F)F)c1)n2C1CC1 -9.63%
Cc1ccc(-n2ccnc(NCCc3ccccc3)c2=O)cc1C -10.8%
COc1ccc(NC(=O)CSc2nnc(-c3nonc3NC(C)=O)n2C)cc1Cl -11.8%
Cc1ccccc1-n1c2nc(=O)[nH]c(=O)c-2cc2c(Cl)cccc21 -14.4%
Cc1cccc(Cn2c(SCc3ccc(C(=O)NCc4cccs4)cc3)nc3cccnc32)c1 -11.6%
CCOC(=O)c1c(C)[nH]c(C)c1S(=O)(=O)N1CCCC(C(=O)Nc2ccc(OC)c(OC)c2)C1 (configuration not stated) -16.1%
O=c1cc2nc(-c3ccccc3F)nc(SCc3ccc(Br)cc3)n2[nH]1 -17%
Cc1ccc2[nH]c(CSc3nnc(C)s3)cc(=O)c2c1 -1.13%
COC(=O)c1ccccc1NC(=O)CN(c1ccc(Cl)cc1)S(=O)(=O)c1ccc(OC)cc1 -0.303%
COc1ccc(CCNC(=O)Cn2c(=O)nc(-c3ccccc3F)c3cc(Cl)ccc32)cc1OC -16.4%
O=C(C1CCC(CNS(=O)(=O)c2cccs2)CC1)N1CCN(c2ccc(Cl)cc2)CC1 (configuration not stated) -10.2%
COc1ccc(N2CCN(c3ncnc4onc(C)c34)CC2)cc1 -21.9%
Cc1cccc(N2CCN(C(=O)C3CCCN(C(=O)c4cc5sccc5n4C)C3)CC2)c1C (configuration not stated) -7.68%
O=C(Nc1cc(-c2ccc(F)c(F)c2)no1)c1ccccc1F -5.4%
CCOc1ccccc1NC(=O)C1CCN(S(=O)(=O)c2cccc3nonc23)CC1 -19.5%
COc1ccc(NC(=O)C(=O)c2cc(C)n(-c3ccc(C)cc3)c2C)cc1Cl -0.587%
COCCNC(=O)CCn1c(=O)[nH]c2cc(OC)c(OC)cc2c1=O -15%
CC1=C(C(=O)Nc2ccc(F)cc2)C(c2ccc(N(C)C)cc2)NC(=O)N1 (configuration not stated) -6.12%
CCC1CN(C(=O)C2CCN(S(=O)(=O)c3c(C)noc3/C=C/c3ccc(C)cc3)CC2)c2cc(C)ccc2O1 (configuration not stated) -13%
CCOc1ccc(CCNC(=O)Cn2ccc3cc(S(=O)(=O)N4CCCCCC4)ccc32)cc1 -7.43%
CCn1c(SCC(=O)Nc2cc(Cl)ccc2OC)nc2c([nH]c3ccccc32)c1=O -1.51%
CC(=O)c1ccc(NC(=O)c2nn(C)c3c2COc2ccccc2-3)cc1 -10.5%
COc1ccccc1NC(=O)C1=C(C)Nc2nc(SCc3ccccc3)nn2C1c1cccs1 (configuration not stated) -16.9%
O=C(NCCc1ccc(Cl)cc1)c1ccc2c(c1)N(Cc1ccccc1)C(=O)CS2 -3.39%
Cc1ccc(NC(=O)c2sc3nc[nH]c(=O)c3c2C)cc1C -24.3%
Cc1ccc(NC(=O)CN2C(=O)c3ccccc3Sc3ncccc32)c(C)c1 -17.4%
O=c1c2ccccc2nc(-c2ccc(Cl)cc2)n1CCCCOc1ccc(F)cc1 -9.31%
CCOc1ccccc1NC(=O)N1CCC(N2CCN(Cc3ccccc3)C(=O)C2=O)CC1 -25.9%
CCc1cc2c(-c3ccccc3)cc(=O)oc2c2c1OCN(Cc1ccc(C)cc1)C2 -18.7%
CCOC(=O)c1c(NC(=O)c2cc(-c3ccc(Br)cc3)on2)sc(C)c1C -23%
CC(Oc1ccccc1F)C(=O)N1CCC(c2nc3ccccc3o2)CC1 (configuration not stated) -11.7%
CCOc1ccc(CN2C(=O)c3ccccc3Sc3ccc(C(=O)NC4CCC(C)CC4)cc32)cc1 (configuration not stated) 5.91%
CCOC(=O)c1ccccc1NC(=O)CCc1c(C)nc2c(c1C)c(=O)n(C)c(=O)n2C -19.2%
Cc1ccc(N(CC(=O)NCc2ccc(OC(C)C)cc2)S(=O)(=O)N(C)C)cc1 -12%
COC(=O)c1ccc(NC(=O)CCOc2ccccc2)cc1 -7.05%
Cc1ccc(Cn2c(Cc3ccccc3)nc3ccccc32)cc1 -4.34%
Cn1cc(C(=O)N2CCN(c3ccccc3)CC2)c(=O)c2cc(S(=O)(=O)N3CCCC3)ccc21 17.8%
O=C(NC1CC(=O)N(c2ccc(F)cc2)C1)C(c1ccccc1)c1ccccc1 (configuration not stated) -8.51%
COc1ccc(-c2noc(CSc3nnc(-c4ccncc4)n3-c3ccc(OC)cc3)n2)cc1 5.33%
Cc1cccc(NC(=O)Cn2c(=O)oc3cc(S(=O)(=O)N4CCCCCC4)ccc32)c1 -28.3%
COc1ccc(CNC(=O)CCS(=O)(=O)c2cc3c4c(c2)CCN4C(=O)CC3)cc1 -11.8%
COC(=O)c1ccc(NC(=O)c2cc3cc4ccc(OC)c(Cl)c4nc3s2)cc1 -5.88%
COc1ccc(S(=O)(=O)N(CCc2ccccc2)CC(=O)NCc2ccc(C)cc2)cc1 -12.4%
CCCC(=O)Nc1nnc(S(=O)(=O)N(C)c2ccccc2)s1 -13.6%
O=C(Nc1c(O)c2ccccc2oc1=O)c1ccccc1Cl -13.2%
COCCNC(=O)c1ccc(NC(=O)N2CCCCc3ccccc32)cc1 -10.2%
CCOc1ccc(CNC(=O)CN2C(=O)CSc3c2c(C)nn3-c2ccccc2)cc1 -21.5%
Cc1ccc(CSc2nc3cccnc3n2Cc2nc(-c3ccccc3F)oc2C)cc1 -8.47%
COc1ccc(NC(=O)C(=O)NCCc2csc3nc(-c4ccccc4C)nn23)cc1 6.92%
CCOc1ccc(-n2nc3ccc(NC(=O)COc4ccccc4C)cc3n2)cc1 9.29%
O=C(C1CC1)N1CCc2cc(Br)cc(S(=O)(=O)Nc3ccc(C(F)(F)F)cc3)c21 10.2%
COc1cccc(CNC(=O)C2CCCN(c3nnc(-n4c(C)ccc4C)s3)C2)c1 (configuration not stated) -8.81%
O=C(NCC(c1cccnc1)N1CCN(Cc2ccccc2)CC1)C(=O)Nc1ccc(F)cc1 (configuration not stated) -14.2%
CCCN(CCC)C(=O)C(CCC(=O)O)NC(=O)c1ccccc1 (configuration not stated) -12.4%
COc1ccccc1CCNC(=O)C1CCN(c2nc3ccccc3nc2C(F)(F)F)CC1 -13.4%
COC(=O)c1ccccc1NC(=O)CSc1c2c(nc3ccc(Cl)cc13)CCCC2 2.71%
CCn1cnc2cc(NCc3ccc(N(C)C)cc3)ccc21 -34.9%
CC(C)c1ccc(NC(=O)CN(C)S(=O)(=O)c2ccc3c(c2)n(C)c(=O)c(=O)n3C)cc1 -5.37%
